Test results: PMC4336329 (PLoS ONE, 2015)
Among all 310,000 compounds or so, about 2,200 (0.71%) showed an effect of 50% or more. Effects have a minus sign here. This is one part of the list.

The molecules below were run against human ether-à-go-go-related gene (hERG) potassium channel (human, UniProt Q12809) (assay: primary screen, population patch clamp on CHO cells stably expressing hERG).
Chain of human ether-à-go-go-related gene (hERG) potassium channel (Q12809 whole entry, looked up): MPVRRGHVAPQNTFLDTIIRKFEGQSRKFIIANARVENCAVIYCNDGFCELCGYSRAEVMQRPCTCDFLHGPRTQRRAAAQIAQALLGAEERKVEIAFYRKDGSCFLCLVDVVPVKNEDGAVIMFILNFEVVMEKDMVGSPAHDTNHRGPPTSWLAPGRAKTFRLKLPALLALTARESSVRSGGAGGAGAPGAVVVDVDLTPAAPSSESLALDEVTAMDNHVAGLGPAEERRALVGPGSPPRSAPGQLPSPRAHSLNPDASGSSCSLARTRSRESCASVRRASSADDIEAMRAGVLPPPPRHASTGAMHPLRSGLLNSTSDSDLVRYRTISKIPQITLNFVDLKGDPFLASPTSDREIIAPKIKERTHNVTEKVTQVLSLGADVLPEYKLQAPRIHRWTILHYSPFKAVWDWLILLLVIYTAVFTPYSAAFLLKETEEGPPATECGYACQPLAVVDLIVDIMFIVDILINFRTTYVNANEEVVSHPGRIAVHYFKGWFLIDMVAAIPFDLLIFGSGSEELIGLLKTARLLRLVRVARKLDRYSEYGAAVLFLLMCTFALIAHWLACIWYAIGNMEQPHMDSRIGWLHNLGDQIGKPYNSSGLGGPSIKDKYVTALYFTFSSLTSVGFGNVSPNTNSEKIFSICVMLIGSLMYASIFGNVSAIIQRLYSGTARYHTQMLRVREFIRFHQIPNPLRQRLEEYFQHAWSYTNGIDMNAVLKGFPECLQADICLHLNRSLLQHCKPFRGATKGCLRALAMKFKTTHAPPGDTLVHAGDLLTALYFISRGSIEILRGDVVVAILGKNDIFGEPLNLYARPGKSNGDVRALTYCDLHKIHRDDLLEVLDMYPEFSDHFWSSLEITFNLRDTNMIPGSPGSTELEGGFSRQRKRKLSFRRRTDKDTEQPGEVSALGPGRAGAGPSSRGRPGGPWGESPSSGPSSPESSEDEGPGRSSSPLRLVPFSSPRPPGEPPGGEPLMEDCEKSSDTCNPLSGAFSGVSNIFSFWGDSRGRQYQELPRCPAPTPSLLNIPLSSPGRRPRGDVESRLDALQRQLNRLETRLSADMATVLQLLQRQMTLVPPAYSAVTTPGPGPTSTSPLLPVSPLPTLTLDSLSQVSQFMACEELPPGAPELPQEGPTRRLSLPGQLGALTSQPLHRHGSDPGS

Compared with `CCc1nnc(SCC(=O)Nc2ccc(NC(C)=O)cc2)n1-n1cccc1`, `CCN(CC(=O)Nc1ccc(NC(C)=O)cc1)C(=O)c1ccc(C(=O)c2ccccc2)cc1` is lower in “hERG current change (%, negative = inhibition) at 1uM” value: 17% for the first, 12.4% for the second.

Going from `Cc1cccc(-c2noc(CN(C)S(=O)(=O)c3cc(Cl)ccc3Cl)n2)c1` to `COc1ccccc1-c1noc(COC(=O)c2ccc(Br)o2)n1`, the “hERG current change (%, negative = inhibition) at 1uM” value rises from -5.9% to 1.09%.

Going from `CC1CCCC/C1=N\NC(=S)Nc1ccccc1` (stereo not drawn) to `CC1CCN(C(=S)c2ccccc2O)CC1`, the “hERG current change (%, negative = inhibition) at 1uM” value rises from 1.03% to 7.29%.

First: Cc1cc(C)cc(N(CCC#N)C(=O)COC(=O)c2ccc(OCc3c(C)noc3C)cc2)c1
Second: COc1cc(OC)cc(C(=O)OCc2ccc([N+](=O)[O-])cc2)c1
The “hERG current change (%, negative = inhibition) at 1uM” value of the first is lower: -6.59% for the first, 9.12% for the second.

Compared with `O=C(N/N=C\c1ccc(F)cc1)c1ccc(F)cc1`, `O=C(Nc1ccccc1F)c1ccc(Cn2cc(Cl)cn2)cc1` is lower in “hERG current change (%, negative = inhibition) at 1uM” value: 10.3% for the first, 2.2% for the second.

Going from `CC(C)NC(=O)COc1ccc(S(=O)(=O)N2CCOCC2)cc1` to `Cc1ccc(S(=O)(=O)NCCNC(=O)CN2CCCC2)cc1`, the “hERG current change (%, negative = inhibition) at 1uM” value falls from 14.3% to -2.48%.

Going from `Cc1ccccc1OCC1Cn2c(nc3c2c(=O)n(C)c(=O)n3C)O1` (stereo not drawn) to `CCn1cc(C(=O)OCc2ccc(F)cc2)c(=O)c2ccc(C)nc21`, the “hERG current change (%, negative = inhibition) at 1uM” value falls from 18.3% to 0.147%.

Compared with `COc1ccc(S(=O)(=O)N2CCCCC2)cc1NC(=O)CCNC(=O)c1ccccc1Cl`, `COc1ccc(C(CNC(=O)c2ccc(C)c(S(=O)(=O)N3CCCCC3)c2)N(C)C)cc1OC` (stereo not drawn) is higher in “hERG current change (%, negative = inhibition) at 1uM” value: -6.97% for the first, 7.76% for the second.

Going from `Cc1ccc2nc(SCC(=O)NC3CCCCC3)nc(=O)n2c1` to `Cc1ccc(SCC(=O)OC(C)C(=O)NC2CCCCC2C)c(C)c1` (stereo not drawn), the “hERG current change (%, negative = inhibition) at 1uM” value rises from -4.63% to 8.58%.

Compared with `Cc1cc(C)c(NC(=O)Cn2c(=O)c3cccn3c3ccccc32)c(C)c1`, `COc1cc(NC(=O)CN2CC(c3ccccc3)CC2=O)cc(OC)c1` (stereo not drawn) is higher in “hERG current change (%, negative = inhibition) at 1uM” value: 11% for the first, 11.5% for the second.

First: COC(=O)c1c(-c2cccnc2)csc1NC(=O)c1ccc2c(c1)OCO2
Second: O=C(CSc1nnc(CN2CCCCC2)n1-c1ccccc1)c1ccc2c(c1)OCO2
The “hERG current change (%, negative = inhibition) at 1uM” value of the first is higher: 14.1% for the first, -8.68% for the second.

Going from `Cc1ccc(CC2CC(=O)N(c3cc(C)on3)C2=O)cc1` (stereo not drawn) to `Cc1ccc2oc(C(=O)N(C)Cc3ccon3)c(C)c2c1`, the “hERG current change (%, negative = inhibition) at 1uM” value falls from 9.13% to 8.72%.

Compared with `CCOc1ccc2[nH]c(C)c(CN3CCCCCC3)c(=O)c2c1`, `CCOc1ccc(-c2c(C)n([O-])c3c([n+]2=O)CCCCC3)cc1` is lower in “hERG current change (%, negative = inhibition) at 1uM” value: 7.88% for the first, 6.48% for the second.

Compared with `COc1ccccc1NC(=O)C1CCN(c2ncnc3c2nc2n3CCCCC2)CC1`, `CNC(=O)c1c(NC(=O)c2ccc(S(=O)(=O)N3CCCCC3)cc2)sc2c1CCN(C(C)C)C2` is higher in “hERG current change (%, negative = inhibition) at 1uM” value: 2.48% for the first, 4.61% for the second.

First: COc1ccc(CN2CCN(c3ccccc3OC)CC2)c(OC)c1.O=C(O)C(=O)O
Second: O=C(c1ccc(CN2CCOCC2)cc1)N1CCN(c2ccccc2F)CC1
The “hERG current change (%, negative = inhibition) at 1uM” value of the first is lower: -47.7% for the first, 3.18% for the second.

First: CC(C)(C)N(Cc1ccccc1)C(=O)CN1C(=O)c2ccccc2C1=O
Second: CCN(CCCn1c(SCC#N)nc2ccccc2c1=O)c1ccccc1
The “hERG current change (%, negative = inhibition) at 1uM” value of the first is higher: 9.45% for the first, -1.98% for the second.

Compared with `COC(=O)C1=C(C)N=C2SC(C)C(=O)N2C1c1cccc(F)c1` (stereo not drawn), `CCc1nnc(NC(=O)CSc2nnnn2-c2cccc(C(=O)OC)c2)s1` is lower in “hERG current change (%, negative = inhibition) at 1uM” value: 11.4% for the first, 7.81% for the second.

First: O=C(COC(=O)c1ccc(Cl)cc1O)Nc1cccnc1Cl
Second: CO/N=C\CC(=O)Nc1ccc(Cl)cc1Cl
The “hERG current change (%, negative = inhibition) at 1uM” value of the first is higher: 8.2% for the first, 6.26% for the second.

Going from `COc1cccc2oc3cc(C#CC4(O)CCCCC4)ccc3c(=O)c12` to `COc1ccc(C(=O)Nc2ccc(CN3CCOCC3)cc2)cc1Br`, the “hERG current change (%, negative = inhibition) at 1uM” value falls from 14.1% to 4.93%.

First: O=C(Cn1cnc2ccccc2c1=O)Nc1ccc(N2CCOCC2)cc1
Second: O=C(CSc1n[nH]c(=O)n1-c1ccccc1)N1CCOCC1
The “hERG current change (%, negative = inhibition) at 1uM” value of the first is lower: 7.91% for the first, 14.4% for the second.

First: CCc1nnc(NC(=O)CSc2nnc(COc3ccccc3)n2Cc2ccccc2)s1
Second: N/C(=N\OC(=O)CC(c1ccccc1)c1ccccc1)c1cccnc1
The “hERG current change (%, negative = inhibition) at 1uM” value of the first is lower: -0.402% for the first, 13.2% for the second.

First: CN(C)C=Nc1nonc1-c1ccc(Cl)cc1
Second: COc1nc(NCc2ccc(Cl)cc2)nc(OC)n1
The “hERG current change (%, negative = inhibition) at 1uM” value of the first is lower: 11.2% for the first, 13.7% for the second.

Going from `O=[N+]([O-])c1ccc(CNc2cccc(Cl)c2)s1` to `CC1(C)CC(c2nc(-c3ccc([N+](=O)[O-])cc3)cs2)CCO1` (stereo not drawn), the “hERG current change (%, negative = inhibition) at 1uM” value rises from 7.07% to 9.08%.

First: O=S(=O)(Nc1nccs1)c1ccc(NCc2cc(Br)cc(Br)c2O)cc1
Second: Cc1ccc(C(=O)NNC(=O)c2ccc(NS(=O)(=O)c3cccs3)cc2)s1
The “hERG current change (%, negative = inhibition) at 1uM” value of the first is lower: 10.9% for the first, 19.6% for the second.

Compared with `Cc1ccn2cc(C(=O)Nc3nnc(C)s3)nc2c1`, `Cc1csc(NC(=O)c2ccc(Cl)nc2)n1` is lower in “hERG current change (%, negative = inhibition) at 1uM” value: 10.5% for the first, 7.59% for the second.

First: CCN(CC(=O)Nc1ccccc1C(F)(F)F)C(=O)CCS(=O)(=O)c1ccc(Cl)cc1
Second: CCC(C)n1c(SCC(=O)Nc2ccccc2C(F)(F)F)nc2ccsc2c1=O (stereo not drawn)
The “hERG current change (%, negative = inhibition) at 1uM” value of the first is higher: 9.68% for the first, -2.54% for the second.

Compared with `CCN(CC)CCCNC(=S)N1CCN(c2nc(-c3ccc(F)cc3)cs2)CC1`, `Cc1c(C)n(Cc2ccc(F)cc2)c2ccc(C(=O)NCCN3CCOCC3)cc12` is lower in “hERG current change (%, negative = inhibition) at 1uM” value: 12.7% for the first, 6.56% for the second.

Compared with `CC(=O)OCC1OC(OCc2cn(C[C@H]3CC[C@H](Cn4cc(COC5OC(COC(C)=O)C(OC(C)=O)C(OC(C)=O)C5OC(C)=O)nn4)O3)nn2)C(OC(C)=O)C(OC(C)=O)C1OC(C)=O` (stereo partly drawn), `CS(=O)(=O)O.Cc1c(O)cccc1C(=O)N[C@@H](CSc1ccccc1)[C@H](O)CN1C[C@H]2CCCC[C@H]2C[C@H]1C(=O)NC(C)(C)C` is lower in “hERG current change (%, negative = inhibition) at 1uM” value: 13.2% for the first, -4.95% for the second.

Going from `Clc1ccc(-n2ncc3c(NCCCn4ccnc4)ncnc32)cc1` to `O=C1NC(Cc2ccccc2)c2nc3ccc(Cl)cc3c(=O)n2-c2ccc(Cl)cc21` (stereo not drawn), the “hERG current change (%, negative = inhibition) at 1uM” value rises from -6.58% to 10.4%.

First: NCCc1ccccc1
Second: Cl.O=C(CN1CCCC1)NCc1ccccc1
The “hERG current change (%, negative = inhibition) at 1uM” value of the first is higher: 16.5% for the first, 13.4% for the second.

First: Cc1cc(C)cc(-c2nnc(SCC(=O)N3CCN(C(=O)c4ccco4)CC3)o2)c1
Second: CCc1c(C)sc(NC(=O)c2ccco2)c1C(=O)N1CCOCC1
The “hERG current change (%, negative = inhibition) at 1uM” value of the first is lower: 7.61% for the first, 12.7% for the second.

Going from `Cc1ccc(NC(=O)c2oc3ccc(S(=O)(=O)N4CCC5(CC4)OCCO5)cc3c2C)cc1C` to `O=S(=O)(c1cccc(Br)c1)N1CCN(C(=S)NCC2CCCO2)CC1` (stereo not drawn), the “hERG current change (%, negative = inhibition) at 1uM” value rises from 5.25% to 10.3%.

First: CCc1cccc(NC(=O)CCSCCC(=O)Nc2cccc(CC)c2)c1
Second: O=C(Nc1ccccc1F)c1cc(C(=O)Nc2ccccc2F)cc([N+](=O)[O-])c1
The “hERG current change (%, negative = inhibition) at 1uM” value of the first is higher: 19% for the first, 11.5% for the second.

Going from `COCn1ccnc1C(O)(c1ccc(OC)cc1)c1ccc(OC)cc1` to `C=CCOc1ccc(C=Nc2ccc(OC)cc2)c(O)c1`, the “hERG current change (%, negative = inhibition) at 1uM” value rises from 9.51% to 18.3%.

First: CC(C)C(C)NC(=O)COc1ccc(-c2ccccc2)cc1 (stereo not drawn)
Second: CN(C)CC[n+]1ccc(C(=O)c2ccccc2)cc1.Cl.[Cl-]
The “hERG current change (%, negative = inhibition) at 1uM” value of the first is higher: 12.9% for the first, 12.5% for the second.

First: O=S(=O)(NC1CCCCCCC1)c1ccccc1F
Second: O=C(c1cccnc1)N1CCCC(Nc2ccc(F)cc2)C1 (stereo not drawn)
The “hERG current change (%, negative = inhibition) at 1uM” value of the first is lower: 1.98% for the first, 16.4% for the second.

Going from `COc1ccc(NC(=O)Cn2nc([N+](=O)[O-])c(Cl)c2C)cc1OC` to `CCCS(=O)(=O)c1c(S(=O)(=O)CCC)c2c(N)cccn2c1C(=O)OC`, the “hERG current change (%, negative = inhibition) at 1uM” value falls from 6.63% to 3.94%.

Compared with `C=CCN=C1S/C(=C/c2ccc([N+](=O)[O-])cc2)C(=O)N1CC=C`, `CCN(c1ccccc1C(=O)O)S(=O)(=O)c1ccc2[nH]c(=O)[nH]c2c1` is higher in “hERG current change (%, negative = inhibition) at 1uM” value: 11.1% for the first, 12.7% for the second.

First: CCc1cc(-c2n[nH]c(=S)n2CC)cs1
Second: Fc1ccc(Cn2c(SCc3ccc(F)c(C(F)(F)F)c3)nnc2C(F)(F)F)cc1
The “hERG current change (%, negative = inhibition) at 1uM” value of the first is higher: 20.6% for the first, -0.982% for the second.

First: C=CCNC(=O)c1ccccc1NC(=O)c1ccc(Cl)c(S(=O)(=O)Nc2cccc(C)c2C)c1
Second: CCc1ccccc1NC(=O)c1cc(S(=O)(=O)N2CCc3ccccc32)cn1C
The “hERG current change (%, negative = inhibition) at 1uM” value of the first is lower: -0.793% for the first, 5.92% for the second.

Going from `CCCC(NC(=O)CCc1c(C)c2cc3c4c(oc3c(C)c2oc1=O)CCCC4)C(=O)O` (stereo not drawn) to `Cl.N=c1c2c(n(Cc3ccc(Cl)cc3Cl)c3c1CCC3)CCCC2`, the “hERG current change (%, negative = inhibition) at 1uM” value falls from 9.46% to 6.18%.

First: CC(=O)c1ccc(-c2ccc([C@H]3[C@@H]4C=CCC[C@@]4(C)C(=O)N3Cc3ccccc3)c(F)c2)cc1
Second: COc1ccc(N2C(=O)CC(N3CCC(n4c(=O)[nH]c5ccccc54)CC3)C2=O)cc1 (stereo not drawn)
The “hERG current change (%, negative = inhibition) at 1uM” value of the first is higher: 9.07% for the first, -14.8% for the second.

Compared with `CN1CCN(C(=O)c2cnn(-c3ccccc3)c2NC(=O)c2cccs2)CC1`, `OC[C@@H](O)[C@H](O)C(/C=N/Nc1ccccc1)=N\Nc1ccccc1` is higher in “hERG current change (%, negative = inhibition) at 1uM” value: -24.1% for the first, 13% for the second.

In the case of `CC(C)OCC1CO1` (stereo not drawn), the “hERG current change (%, negative = inhibition) at 1uM” value is reported as 11.2%.
